# Experimental data from the supplement of paper PMC12009370.
# The list shows a part of the results. Single values are uncertain, as repeats are few or missing.
# Tests used:
# [1] = system: IMR-32; assay: drug sensitivity score (DSS), single drug with vehicle (DSS (score)); higher = more cytotoxic; extreme values may be limits of the assay; conditions: 72 h; co-treatment: vehicle (DMSO)
# [2] = system: SK-N-AS; assay: as above; conditions: 72 h; co-treatment: vehicle (DMSO)
# [3] = system: SK-N-AS; assay: drug sensitivity score (DSS) in combination with SL-176 (DSS (score)); higher = more cytotoxic; extreme values may be limits of the assay; conditions: 72 h; co-treatment: SL-176 11.2 uM (IC25 in IMR-32)
# [4] = system: IMR-32; assay: as above; conditions: 72 h; co-treatment: SL-176 11.2 uM (IC25 in IMR-32)
# [5] = system: SK-N-AS; assay: drug sensitivity score (DSS) in combination with GSK2830371 (DSS (score)); neuroblastoma lines; SL-176 and GSK2830371 are WIP1 inhibitors; higher = more cytotoxic; extreme values may be limits of the assay; conditions: 72 h; co-treatment: GSK2830371 at IC25 in IMR-32
# [6] = system: IMR-32; assay: as above; conditions: 72 h; co-treatment: GSK2830371 at IC25 in IMR-32
# 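Throughout, for drug sensitivity score (DSS) in combination with GSK2830371: neuroblastoma cells in 384-well plates, each compound at five concentrations, luminescence read-out, DSS derived from fitted concentration-response curve combining IC50 with minimum and maximum inhibition.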
# 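Throughout, for drug sensitivity score (DSS) in combination with SL-176: cells in 384-well plates, luminescence read-out, each screening drug at five concentrations, DSS derived from the fitted concentration-response curve combining IC50 with minimum and maximum inhibition.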
# 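Throughout, for drug sensitivity score (DSS), single drug with vehicle: 384-well screen with five concentrations per compound and a luminescence read-out, DSS computed from the fitted dose-response curve combining IC50 with minimum and maximum inhibition.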
SMILES,drug sensitivity score [1],drug sensitivity score [2],drug sensitivity score [3],drug sensitivity score [4],drug sensitivity score [5],drug sensitivity score [6]
C[C@@H]1C[C@H](N)C[C@H](c2ccncc2NC(=O)c2ccc(F)c(-c3c(F)cccc3F)n2)C1,15.7,4.2,2.9,11.6,4.5,21.8
CCn1c(=O)c(-c2ccc(Cl)cc2Cl)cc2cnc(Nc3ccc(N4CCNCC4)c(F)c3)nc21,2.4,3.5,4.2,2.6,5.5,6.9
CCN(CC)CCN(Cc1ccc(-c2ccc(C(F)(F)F)cc2)cc1)C(=O)Cn1c(SCc2ccc(F)cc2)nc(=O)c2c1CCC2 [Darapladib],1.3,0,0,0.4,0.9,1
C=CC(=O)N1CCC(Oc2cc3c(Nc4ccc(Cl)c(Cl)c4F)ncnc3cc2OC)CC1 [Poziotinib],0.5,0,0,0,0,0
CCc1nc(C(N)=O)c(Nc2ccc(N3CCC(N4CCN(C)CC4)CC3)c(OC)c2)nc1NC1CCOCC1 [Gilteritinib],0.3,2.2,4,1.9,1.7,0.1
COc1cc2c(NC3CCN(C(C)C)CC3)nc(N3CCC(F)(F)CC3)nc2cc1OCCCN1CCCC1,3.1,6.6,5.4,5.6,5.4,5.1
COc1ccc(CCc2nc3cc(-c4c(C)noc4C)ccc3n2C[C@H](C)N2CCOCC2)cc1Cl,5.8,3.5,3.8,7.5,3.9,7.7
CNCc1ccc(-c2[nH]c3cc(F)cc4c3c2CCNC4=O)cc1 [Rucaparib],10.4,0,0.1,13.2,0,17.4
Cc1cc(C)c(CNC(=O)c2cc(-c3ccc(CN4CCOCC4)cc3)cc3c2cnn3C2CCCC2)c(=O)[nH]1,0.6,0,0,0.8,0,0
O=C(/C=C\n1cnc(-c2cc(C(F)(F)F)cc(C(F)(F)F)c2)n1)NNc1ccccn1 [Verdinexor],17.5,7.9,8,17.4,6.1,19.9
CC[C@]1(O)C[C@@H]2CN(CCc3c([nH]c4ccccc34)[C@@](C(=O)OC)(c3cc4c(cc3OC)N(C)[C@H]3[C@@](O)(C(=O)OC)[C@H](OC(C)=O)[C@]5(CC)C=CCN6CC[C@]43[C@@H]65)C2)C1 [Vinblastine],32.9,21.1,20.1,30.2,21.6,31
COc1cc2c(cc1OC(C)C)[C@H](c1ccc(Cl)cc1)N(c1ccc(N(C)C[C@H]3CC[C@H](N4CCN(C)C(=O)C4)CC3)cc1)C(=O)C2,21.6,4.8,6.4,23,6.2,24.8
Nc1cccc2c1C(=O)N(C1CCC(=O)NC1=O)C2=O (configuration not stated) [Pomalidomide],0,0,0,0,0,0
CC#CC(=O)N1CCC[C@H]1c1nc(-c2ccc(C(=O)Nc3ccccn3)cc2)c2c(N)nccn12 [Acalabrutinib],1.2,0,0,7.5,0,0
CN1CCC(CNc2ccc3ncc(-c4cccc(OC(F)(F)F)c4)n3n2)CC1,9.1,7.6,6.7,8.7,6.9,10.5
CO[C@H]1C[C@@H]2CC[C@@H](C)[C@@](O)(O2)C(=O)C(=O)N2CCCC[C@H]2C(=O)O[C@H]([C@H](C)C[C@@H]2CC[C@@H](OC(=O)C(C)(CO)CO)[C@H](OC)C2)CC(=O)[C@H](C)/C=C(\C)[C@@H](O)[C@@H](OC)C(=O)[C@H](C)C[C@H](C)/C=C/C=C/C=C/1C [Temsirolimus],13.7,11.3,10.8,6.8,11.6,12.4
Nc1ncnc2c1nc(Cl)n2[C@@H]1O[C@H](CO)[C@@H](O)[C@H]1O [8-chloro-adenosine],20.2,15.2,16,16.5,16.4,18.6
CC1(C)CNc2cc(NC(=O)c3cccnc3NCc3ccncc3)ccc21 [Motesanib],0,0,0.1,3.8,0,0
Nc1nc(NC2CC2)cc(-c2cccc(Cl)c2Cl)n1,13.7,10.5,9.5,14.2,9.7,19
CN(C)CC#Cc1ccc(OCCCc2sc(N3CCc4cccc(C(=O)Nc5nc6ccccc6s5)c4C3)nc2C(=O)O)c(F)c1,8.8,1.4,1.1,14.6,2.5,16.7
CN1CCN(c2ccc3nc(-c4c(N)c5c(F)cccc5[nH]c4=O)[nH]c3c2)CC1 [Dovitinib],0,0.3,0.4,0.2,0,3
Cc1cc(Nc2nc(N[C@@H](C)c3ncc(F)cn3)ncc2Cl)[nH]n1,2.7,1,0.8,4.2,0.7,4.9
COCC[n+]1c2c(n(Cc3cnccn3)c1C)C(=O)c1ccccc1C2=O [Sepantronium bromide],42.2,37.2,36.7,44.7,37,42.1
CC(C)C[C@@H](C(=O)N[C@H](C(=O)OC1CCCC1)c1ccccc1)[C@H](O)C(=O)NO [Tosedostat],19.1,4.3,6.3,10.6,2.7,7.3

SMILES,drug sensitivity score [1],drug sensitivity score [2],drug sensitivity score [3],drug sensitivity score [4],drug sensitivity score [5],drug sensitivity score [6]
COc1ccccc1S(=O)(=O)Nc1ccc2c(c1)CN(C)C(=O)N2,6.3,6.1,6.7,5.7,5.1,4
O[C@H](C[C@H]1c2c(F)cccc2-c2cncn21)[C@H]1CC[C@H](O)CC1,0,1.1,0.2,0.1,1.6,0.1
O=C(/C=C/c1cccnc1)NCCCCC1CCN(C(=O)c2ccccc2)CC1 [Daporinad],43.6,30,28.6,45.9,30.6,45.3
CCNCCS(=O)(=O)NC[C@@]1(c2ccccc2)SC(NC(=O)C(C)(C)C)=NN1C(=O)C(C)(C)C [Litronesib],30.5,22.6,22.2,30.6,24.1,31.2
Cc1cnc(Nc2ccc(OCCN3CCCC3)cc2)nc1Nc1cccc(S(=O)(=O)NC(C)(C)C)c1 [Fedratinib],8.5,7,6.7,8.6,8,7.7
CC(C)(O)CC(=O)NCCn1ccc2ncnc(Nc3ccc(Oc4cccc(C(F)(F)F)c4)c(Cl)c3)c21,0.2,0,0.3,0,0.1,0
C[C@H](Nc1ncnc2[nH]cnc12)c1cc2ccc(F)cc2nc1-c1ccccn1,0,0,0,0,0,0
CN(C)C(=N)NC(=N)N [Metformin],0,0,0,0,0,0
CCCCCCCCCCCCCCCCCCOP(=O)([O-])OC1CC[N+](C)(C)CC1 [Perifosine],0,0,0,0,0,0
CC(=O)O[C@H]1C(=O)[C@@]2(C)[C@H]([C@H](OC(=O)c3ccccc3)[C@]3(O)C[C@H](OC(=O)[C@H](O)[C@@H](NC(=O)c4ccccc4)c4ccccc4)C(C)=C1C3(C)C)[C@]1(OC(C)=O)CO[C@@H]1C[C@@H]2O [Paclitaxel],42,25.3,24.3,39.5,25.9,41
CCNC(=O)CCC/C=C\C[C@@H]1[C@@H](/C=C/[C@@H](O)CCc2ccccc2)[C@H](O)C[C@@H]1O [Bimatoprost],0.1,0,0,1.1,0,0
CO[C@@H](C(=O)N1Cc2[nH]nc(NC(=O)c3ccc(N4CCN(C)CC4)cc3)c2C1)c1ccccc1 [Danusertib],32,13,11.5,33.8,14.9,32.6
CNC(=O)[C@@H](NC(=O)[C@H](CC(C)C)[C@H](O)C(=O)NO)C(C)(C)C [Marimastat],0,0.4,0,10,0.6,0
CCN1CCN(c2ccc(Nc3cc(N(C)C(=O)Nc4c(Cl)c(OC)cc(OC)c4Cl)ncn3)cc2)CC1 [Infigratinib],0,0,0,0,0,0
Nc1nc2cc(-c3ccc4ncc(C(=O)N5CCOCC5)n4c3)ccc2o1 [Serabelisib],1.1,5.2,4.1,1.6,4.9,5.2
Cc1ncc(-c2ccnc(Nc3ccc(S(C)(=O)=O)cc3)n2)n1C(C)C,13,5.6,6.9,14,6.8,13.3
NC1(c2ccc(-c3nc4ccn5c(=O)[nH]nc5c4cc3-c3ccccc3)cc2)CCC1,2.7,2.9,0.9,1.9,2.1,1.2
Cc1cc(Nc2ncnc3ccc(NC4=NC(C)(C)CO4)cc23)ccc1Oc1ccn2ncnc2c1 [Tucatinib],0,0,0,0,0,0
CC(C)(C)c1cc(NC(=O)Nc2ccc(Oc3ccnc4[nH]c(=O)cnc34)cc2F)n(-c2ccccc2)n1,11.4,6.9,6.8,10.1,7.2,11.2
Cc1cccc(CC(=O)N2CCc3c2ccc(-c2cn(C)c4ncnc(N)c24)c3F)n1,0,0.4,0.1,0,0,0
CC1=C(/C=C/C(C)=C/C=C/C(C)=C/C(=O)O)C(C)(C)CCC1 [Tretinoin],0,0,0.8,0,0.2,1.8
COc1cc2c(Oc3ccc(NC(=O)C4(C(=O)Nc5ccc(F)cc5)CC4)cc3F)ccnc2cc1OCCCN1CCOCC1 [Foretinib],6.1,2.9,1.6,8.5,3.4,4.9
CN1CC[C@H](c2c(O)cc(O)c3c(=O)cc(-c4ccccc4Cl)oc23)[C@H](O)C1 [Alvocidib],18.3,17.3,19.1,20.4,19.2,18.5
